Here are results for three molecules from PMC6760808.

The chains behind the UniProt entries cited, without tags or fusion partners.
UniProt Q7Z494: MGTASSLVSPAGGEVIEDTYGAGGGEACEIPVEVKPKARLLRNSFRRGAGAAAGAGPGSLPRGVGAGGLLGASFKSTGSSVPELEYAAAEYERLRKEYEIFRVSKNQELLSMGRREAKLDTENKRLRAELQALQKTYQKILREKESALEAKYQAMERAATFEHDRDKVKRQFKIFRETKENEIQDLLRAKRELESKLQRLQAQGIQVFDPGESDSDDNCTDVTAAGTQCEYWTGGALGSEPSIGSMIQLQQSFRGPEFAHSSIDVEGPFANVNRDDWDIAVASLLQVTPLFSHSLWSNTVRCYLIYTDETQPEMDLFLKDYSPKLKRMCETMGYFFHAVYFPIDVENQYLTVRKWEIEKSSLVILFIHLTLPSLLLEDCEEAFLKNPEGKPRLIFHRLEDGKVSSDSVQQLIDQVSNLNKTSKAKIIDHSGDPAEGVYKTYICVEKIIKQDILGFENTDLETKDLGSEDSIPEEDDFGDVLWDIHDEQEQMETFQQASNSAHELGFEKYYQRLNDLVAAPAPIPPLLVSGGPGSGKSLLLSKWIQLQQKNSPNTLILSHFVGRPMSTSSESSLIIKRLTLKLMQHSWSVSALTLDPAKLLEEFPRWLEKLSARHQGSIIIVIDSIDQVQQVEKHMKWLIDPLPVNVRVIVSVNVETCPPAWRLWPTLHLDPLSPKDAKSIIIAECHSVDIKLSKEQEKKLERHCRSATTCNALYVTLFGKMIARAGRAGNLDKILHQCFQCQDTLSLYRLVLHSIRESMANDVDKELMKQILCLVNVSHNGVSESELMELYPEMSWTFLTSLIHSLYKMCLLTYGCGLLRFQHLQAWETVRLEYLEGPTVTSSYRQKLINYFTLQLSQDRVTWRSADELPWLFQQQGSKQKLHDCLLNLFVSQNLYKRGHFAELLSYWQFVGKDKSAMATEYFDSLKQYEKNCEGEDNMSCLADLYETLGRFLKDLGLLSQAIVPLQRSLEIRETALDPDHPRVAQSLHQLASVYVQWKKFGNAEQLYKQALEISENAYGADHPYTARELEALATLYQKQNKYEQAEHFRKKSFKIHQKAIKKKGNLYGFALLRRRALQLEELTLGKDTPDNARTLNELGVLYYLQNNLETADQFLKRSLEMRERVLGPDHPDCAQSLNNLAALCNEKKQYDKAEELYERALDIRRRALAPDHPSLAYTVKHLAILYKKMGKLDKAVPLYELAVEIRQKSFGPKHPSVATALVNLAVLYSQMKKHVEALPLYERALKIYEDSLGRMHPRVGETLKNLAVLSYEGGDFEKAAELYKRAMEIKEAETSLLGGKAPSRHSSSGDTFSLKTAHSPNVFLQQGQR

What all share (test): two-hybrid; directed yeast two-hybrid by mating: AH109 with pGBKT7 (BD, bait) fusions x Y187 with pACT2 (AD, prey) fusions; growth on -leu,-trp,-his plates scored as strong, medium or weak; each mating repeated at least three times
One experiment concerns the target NPHP3 (human) (UniProt Q7Z494).
For another experiment, the target named is T1, Nup155 (human) (UniProt O75694).
T1 sequence: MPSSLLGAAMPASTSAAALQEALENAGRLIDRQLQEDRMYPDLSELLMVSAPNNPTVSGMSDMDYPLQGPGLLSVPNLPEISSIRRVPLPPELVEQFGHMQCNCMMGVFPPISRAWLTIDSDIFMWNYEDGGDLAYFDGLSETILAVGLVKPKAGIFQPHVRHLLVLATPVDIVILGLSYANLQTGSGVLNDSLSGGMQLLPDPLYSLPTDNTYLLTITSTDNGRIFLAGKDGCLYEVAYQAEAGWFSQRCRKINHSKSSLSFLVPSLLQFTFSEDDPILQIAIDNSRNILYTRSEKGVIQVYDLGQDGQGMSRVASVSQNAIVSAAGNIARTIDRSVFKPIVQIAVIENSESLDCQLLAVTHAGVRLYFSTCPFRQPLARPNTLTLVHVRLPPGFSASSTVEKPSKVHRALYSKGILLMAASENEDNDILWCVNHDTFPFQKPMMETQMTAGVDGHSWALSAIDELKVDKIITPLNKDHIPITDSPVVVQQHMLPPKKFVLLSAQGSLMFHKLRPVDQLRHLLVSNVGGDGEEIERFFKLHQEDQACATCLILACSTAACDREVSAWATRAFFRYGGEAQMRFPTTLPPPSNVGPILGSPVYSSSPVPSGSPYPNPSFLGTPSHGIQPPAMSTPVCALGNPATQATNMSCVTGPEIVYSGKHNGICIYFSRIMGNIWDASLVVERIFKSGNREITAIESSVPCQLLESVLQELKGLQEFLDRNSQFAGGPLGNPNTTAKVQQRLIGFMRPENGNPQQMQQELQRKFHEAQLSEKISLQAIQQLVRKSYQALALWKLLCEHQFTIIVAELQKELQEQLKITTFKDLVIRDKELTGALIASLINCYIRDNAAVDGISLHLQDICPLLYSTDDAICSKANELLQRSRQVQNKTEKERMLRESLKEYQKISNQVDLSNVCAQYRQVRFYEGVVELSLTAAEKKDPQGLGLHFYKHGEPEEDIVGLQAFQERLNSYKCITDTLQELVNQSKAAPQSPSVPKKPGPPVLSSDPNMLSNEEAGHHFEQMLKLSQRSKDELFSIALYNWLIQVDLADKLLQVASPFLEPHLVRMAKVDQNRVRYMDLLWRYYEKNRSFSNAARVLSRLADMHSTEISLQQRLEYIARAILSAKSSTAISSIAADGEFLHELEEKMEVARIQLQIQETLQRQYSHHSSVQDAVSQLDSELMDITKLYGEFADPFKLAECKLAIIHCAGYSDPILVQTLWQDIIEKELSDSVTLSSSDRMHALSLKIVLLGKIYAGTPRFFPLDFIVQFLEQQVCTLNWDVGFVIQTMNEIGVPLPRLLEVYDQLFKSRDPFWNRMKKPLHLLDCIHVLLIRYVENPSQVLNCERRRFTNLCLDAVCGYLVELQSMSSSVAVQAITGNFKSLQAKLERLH

Another experiment deals with T2, Nup43 (human) (UniProt Q8NFH3).
T2 sequence: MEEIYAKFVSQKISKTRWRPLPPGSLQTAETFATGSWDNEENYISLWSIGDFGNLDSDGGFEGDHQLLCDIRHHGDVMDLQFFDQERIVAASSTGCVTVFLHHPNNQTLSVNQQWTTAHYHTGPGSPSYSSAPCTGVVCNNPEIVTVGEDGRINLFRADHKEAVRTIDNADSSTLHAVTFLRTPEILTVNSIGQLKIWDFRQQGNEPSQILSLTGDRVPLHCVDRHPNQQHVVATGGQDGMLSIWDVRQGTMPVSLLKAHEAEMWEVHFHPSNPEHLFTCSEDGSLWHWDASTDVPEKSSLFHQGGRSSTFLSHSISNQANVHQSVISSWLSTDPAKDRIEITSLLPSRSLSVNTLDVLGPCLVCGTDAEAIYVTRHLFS

A further experiment has as its target T3, Nup133 (human) (UniProt Q8WUM0).
T3 sequence: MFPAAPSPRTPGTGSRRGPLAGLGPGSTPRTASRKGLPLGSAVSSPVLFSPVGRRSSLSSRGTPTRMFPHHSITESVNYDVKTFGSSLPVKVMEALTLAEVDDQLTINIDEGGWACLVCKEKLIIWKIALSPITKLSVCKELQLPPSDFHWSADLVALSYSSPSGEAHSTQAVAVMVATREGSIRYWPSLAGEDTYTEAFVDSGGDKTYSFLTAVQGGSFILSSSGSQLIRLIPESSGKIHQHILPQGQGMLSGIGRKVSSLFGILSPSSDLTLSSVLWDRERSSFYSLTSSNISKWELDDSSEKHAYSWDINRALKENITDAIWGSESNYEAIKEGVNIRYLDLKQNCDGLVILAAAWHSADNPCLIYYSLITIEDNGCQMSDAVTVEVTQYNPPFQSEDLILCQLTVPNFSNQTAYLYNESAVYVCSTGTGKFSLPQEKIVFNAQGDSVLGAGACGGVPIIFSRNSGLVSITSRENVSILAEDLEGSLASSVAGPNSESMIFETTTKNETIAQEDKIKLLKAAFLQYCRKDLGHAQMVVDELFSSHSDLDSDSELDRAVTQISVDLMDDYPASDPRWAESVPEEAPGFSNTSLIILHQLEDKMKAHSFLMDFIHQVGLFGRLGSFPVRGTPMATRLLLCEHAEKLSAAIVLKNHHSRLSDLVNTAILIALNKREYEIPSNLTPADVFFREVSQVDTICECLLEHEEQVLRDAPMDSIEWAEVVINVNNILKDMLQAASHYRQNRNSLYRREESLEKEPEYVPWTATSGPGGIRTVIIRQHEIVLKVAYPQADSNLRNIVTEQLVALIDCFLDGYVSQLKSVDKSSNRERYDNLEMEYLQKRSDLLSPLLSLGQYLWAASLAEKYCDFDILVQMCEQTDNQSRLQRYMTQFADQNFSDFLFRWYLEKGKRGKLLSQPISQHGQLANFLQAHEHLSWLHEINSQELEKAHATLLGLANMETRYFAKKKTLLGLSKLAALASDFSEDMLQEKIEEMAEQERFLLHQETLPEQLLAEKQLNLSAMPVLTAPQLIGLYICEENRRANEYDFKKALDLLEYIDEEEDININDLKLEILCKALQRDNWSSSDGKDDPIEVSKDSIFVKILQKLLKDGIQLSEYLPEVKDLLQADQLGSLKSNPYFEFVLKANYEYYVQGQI

A further experiment deals with T4, Nup88 (human) (UniProt Q99567).
T4 sequence: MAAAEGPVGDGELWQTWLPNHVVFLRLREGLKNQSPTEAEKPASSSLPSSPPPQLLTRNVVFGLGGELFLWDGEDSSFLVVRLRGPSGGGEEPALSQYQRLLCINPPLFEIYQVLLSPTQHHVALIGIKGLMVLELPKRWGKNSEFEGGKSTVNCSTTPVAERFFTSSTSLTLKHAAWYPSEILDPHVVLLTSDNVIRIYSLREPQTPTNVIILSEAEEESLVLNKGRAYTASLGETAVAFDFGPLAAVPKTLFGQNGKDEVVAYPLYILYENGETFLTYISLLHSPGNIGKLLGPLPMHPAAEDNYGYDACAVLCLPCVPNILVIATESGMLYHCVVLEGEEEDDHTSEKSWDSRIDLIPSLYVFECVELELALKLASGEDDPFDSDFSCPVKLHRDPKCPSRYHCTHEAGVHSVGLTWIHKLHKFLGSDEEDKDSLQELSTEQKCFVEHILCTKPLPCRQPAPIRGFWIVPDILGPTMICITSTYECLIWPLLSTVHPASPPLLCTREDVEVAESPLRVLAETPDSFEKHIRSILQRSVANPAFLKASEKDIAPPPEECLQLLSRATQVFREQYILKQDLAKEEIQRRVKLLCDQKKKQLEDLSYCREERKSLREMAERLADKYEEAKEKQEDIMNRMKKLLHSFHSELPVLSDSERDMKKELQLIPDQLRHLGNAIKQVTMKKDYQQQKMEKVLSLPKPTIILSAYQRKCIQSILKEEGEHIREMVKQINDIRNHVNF

No constants are given. Whether binding was seen depends on the method and setting. Some binding calls cover weakened binding; strength is not graded here.

On to NPHP3 (from UniProt Q7Z494 1-1330), for which, in the experiment with NPHP3 (human), the binding result was “binds”.

B1: NPHP9 (NEK8) (protein, UniProt Q86SG6 1-692)
chain: MEKYERIRVVGRGAFGIVHLCLRKADQKLVIIKQIPVEQMTKEERQAAQNECQVLKLLNHPNVIEYYENFLEDKALMIAMEYAPGGTLAEFIQKRCNSLLEEETILHFFVQILLALHHVHTHLILHRDLKTQNILLDKHRMVVKIGDFGISKILSSKSKAYTVVGTPCYISPELCEGKPYNQKSDIWALGCVLYELASLKRAFEAANLPALVLKIMSGTFAPISDRYSPELRQLVLSLLSLEPAQRPPLSHIMAQPLCIRALLNLHTDVGSVRMRRAEKSVAPSNTGSRTTSVRCRGIPRGPVRPAIPPPLSSVYAWGGGLGTPLRLPMLNTEVVQVAAGRTQKAGVTRSGRLILWEAPPLGAGGGSLLPGAVEQPQPQFISRFLEGQSGVTIKHVACGDFFTACLTDRGIIMTFGSGSNGCLGHGSLTDISQPTIVEALLGYEMVQVACGASHVLALSTERELFAWGRGDSGRLGLGTRESHSCPQQVPMPPGQEAQRVVCGIDSSMILTVPGQALACGSNRFNKLGLDHLSLGEEPVPHQQVEEALSFTLLGSAPLDQEPLLSIDLGTAHSAAVTASGDCYTFGSNQHGQLGTNTRRGSRAPCKVQGLEGIKMAMVACGDAFTVAIGAESEVYSWGKGARGRLGRRDEDAGLPRPVQLDETHPYTVTSVSCCHGNTLLAVRSVTDEPVPP
For B1, the binding result with Nup155 (human) is reported as “binds”; with Nup43 (human) it was “binds weakly”; with Nup133 (human), “binds weakly”.

B2: NPHP5 (IQCB1) (protein, UniProt Q8BP00 1-598)
chain: MKPAGTDPRILSLAAEVAKSPEQNVPVILLKLKEIINNTPLGSSELKKVKQDIYCYDLIQYCLLVLSQDSSRIQGGWSTISQLTQILSHCCVGLEPGEDGEEFYKELLPSAAENFLILGRRLQTCFINATKGEEQDKLLHFFQIVTDSLFWLLGGHVQLIQNVLQSDHFLHLLQTDNVQIGASVMTLLQNILQINSGNLLKIEGKALHSILDEILFKLLSTPSPVIRSTATKLLLVLAESHQEILILLRLSACYKGLRSLLNKQETLTEFSRELRQLVDLLTPKIHQEVEEQKLHKAACLIQAYWKGFQTRKRLKKLPSAVIALQRSFRSKRTKMMLELNRQKEEEDLRLKLQLQRQRAMRLSRESRLNMLEIIHPGQVEKYNREMEEKSALTIQKHWRGYRERKNFRQQRPSLTEYKAAVTLQRAVLKFLAKCRKKKKLFASWHGLQELTDARRVELKQQVDDYVKRHPCSQMSEAASRELHAQAQERLQHYFMGRAIEERAQQHREALMAQISTNIEQLMKAPSLKEAEGKEPEQFLSRSRPVAAKAKQAHLTTLKHIQAPWWKKLGEEPGDEVDVPKDELSIDLGMLFIGGTKPP
As to B2, the binding result with Nup155 (human), in the experiment with Nup88 (human) and with Nup133 (human) was “binds” in each case.
